Measured values as given in the supplement of paper PMC8728848.
The list shows a part of the results.

Experiments:
Experiment in all cases: glycan array binding signal (z-score within array); higher = stronger binding
Details in all cases: glycan notation: IUPAC condensed, linker removed
[1] = molecular target: GlcNAc(a1-4)Gal(b1-4)GlcNAc(b1-3)Gal(b1-4)Glc
In short: (§1)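 The binding signal is a Z-score computed within each array and averaged over linkers. Arrays of the same protein sequence at different concentrations or buffers were also averaged together. Data originate from 3228 arrays in the Consortium for Functional Glycomics database, kept only where the protein sequence was available.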

[2] = molecular target: GlcNAc(a1-4)Gal(b1-4)GlcNAc(b1-3)Gal(b1-4)GlcNAc
In short: as §1

[3] = molecular target: GlcNAc(a1-4)Gal(b1-4)GlcNAc(b1-3)Gal(b1-4)GlcNAc(b1-3)Gal(b1-4)GlcNAc
In short: as §1

[4] = molecular target: GlcNAc(a1-4)Gal(b1-4)GlcNAc(b1-3)Gal(b1-4)[Fuc(a1-3)]GlcNAc(b1-3)Gal(b1-4)[Fuc(a1-3)]GlcNAc
In short: as §1

[5] = molecular target: GlcNAc(a1-6)Gal(b1-4)GlcNAc
In short: as §1

[6] = molecular target: GlcNAc(b1-2)Gal(b1-3)GalNAc
In short: as §1

[7] = molecular target: GlcNAc(b1-2)Man(a1-3)[GlcNAc(b1-2)Man(a1-6)]Man(b1-4)GlcNAc(b1-4)GlcNAc
In short: as §1

[8] = molecular target: GlcNAc(b1-2)Man(a1-3)[GlcNAc(b1-2)Man(a1-6)]Man(b1-4)GlcNAc(b1-4)[Fuc(a1-6)]GlcNAc
In short: as §1

[9] = molecular target: GlcNAc(b1-2)Man(a1-3)[GlcNAc(b1-4)][GlcNAc(b1-2)Man(a1-6)]Man(b1-4)GlcNAc(b1-4)GlcNAc
In short: as §1

[10] = molecular target: GlcNAc(b1-2)[GlcNAc(b1-4)]Man(a1-3)[GlcNAc(b1-2)Man(a1-6)]Man(b1-4)GlcNAc(b1-4)GlcNAc
In short: as §1

[11] = molecular target: GlcNAc(b1-2)[GlcNAc(b1-4)]Man(a1-3)[GlcNAc(b1-4)][GlcNAc(b1-2)Man(a1-6)]Man(b1-4)GlcNAc(b1-4)GlcNAc
In short: as §1

[12] = molecular target: GlcNAc(b1-2)[GlcNAc(b1-4)]Man(a1-3)[GlcNAc(b1-4)][GlcNAc(b1-2)[GlcNAc(b1-6)]Man(a1-6)]Man(b1-4)GlcNAc(b1-4)GlcNAc
In short: as §1

[13] = molecular target: GlcNAc(b1-2)[GlcNAc(b1-6)]Man(a1-6)[GlcNAc(b1-2)Man(a1-3)]Man(b1-4)GlcNAc(b1-4)GlcNAc
In short: as §1

[14] = molecular target: GlcNAc(b1-2)[GlcNAc(b1-6)]Man(a1-6)[GlcNAc(b1-2)Man(a1-3)][GlcNAc(b1-4)]Man(b1-4)GlcNAc(b1-4)GlcNAc
In short: as §1

GlcNAc(b1-3)Gal = molecular target: GlcNAc(b1-3)Gal
In short: as §1

[15] = molecular target: GlcNAc(b1-3)Gal(b1-3)GalNAc
In short: as §1

GlcNAc(b1-3)Gal(b1-4)Glc = molecular target: GlcNAc(b1-3)Gal(b1-4)Glc
In short: as §1

[16] = molecular target: GlcNAc(b1-3)Gal(b1-4)GlcNAc
In short: as §1

[17] = molecular target: GlcNAc(b1-3)Gal(b1-4)GlcNAc(b1-3)Gal(b1-4)GlcNAc
In short: as §1

GlcNAc(b1-3)GalNAc = molecular target: GlcNAc(b1-3)GalNAc
In short: as §1

GlcNAc(b1-3)Man = molecular target: GlcNAc(b1-3)Man
In short: as §1

[18] = molecular target: GlcNAc(b1-3)[GlcNAc(b1-4)][GlcNAc(b1-6)]GlcNAc
In short: as §1

[19] = molecular target: GlcNAc(b1-3)[GlcNAc(b1-6)]Gal(b1-4)GlcNAc
In short: as §1

[20] = molecular target: GlcNAc(b1-3)[GlcNAc(b1-6)]GalNAc
In short: as §1

[21] = molecular target: GlcNAc(b1-4)Gal(b1-4)GlcNAc
In short: as §1

GlcNAc(b1-4)GlcNAc = molecular target: GlcNAc(b1-4)GlcNAc
In short: as §1

[22] = molecular target: GlcNAc(b1-4)GlcNAc(b1-4)GlcNAc
In short: as §1

[23] = molecular target: GlcNAc(b1-4)GlcNAc(b1-4)GlcNAc(b1-4)GlcNAc(b1-4)GlcNAc
In short: as §1

[24] = molecular target: GlcNAc(b1-4)GlcNAc(b1-4)GlcNAc(b1-4)GlcNAc(b1-4)GlcNAc(b1-4)GlcNAc
In short: as §1

[25] = molecular target: GlcNAc(b1-4)[GlcNAc(b1-6)]GalNAc
In short: as §1

[26] = molecular target: GlcNAc(b1-6)Gal(b1-4)GlcNAc
In short: as §1

GlcNAc(b1-6)GalNAc = molecular target: GlcNAc(b1-6)GalNAc
In short: as §1

GlcNAc3Prop(b1-4)GlcNAc = molecular target: GlcNAc3Prop(b1-4)GlcNAc
In short: as §1

[27] = molecular target: GlcNAc6S(b1-3)Gal(b1-4)GlcNAc
In short: as §1

Kdn(a2-3)Gal(b1-3)GalNAc = molecular target: Kdn(a2-3)Gal(b1-3)GalNAc
In short: as §1

Kdn(a2-3)Gal(b1-3)GlcNAc = molecular target: Kdn(a2-3)Gal(b1-3)GlcNAc
In short: as §1

Kdn(a2-3)Gal(b1-4)Glc = molecular target: Kdn(a2-3)Gal(b1-4)Glc
In short: as §1

Kdn(a2-3)Gal(b1-4)GlcNAc = molecular target: Kdn(a2-3)Gal(b1-4)GlcNAc
In short: as §1

[28] = molecular target: Kdn(a2-3)Gal(b1-4)[Fuc(a1-3)]GlcNAc
In short: as §1

Kdn(a2-6)Gal(b1-4)GlcNAc = molecular target: Kdn(a2-6)Gal(b1-4)GlcNAc
In short: as §1

[29] = molecular target: Man(a1-2)Man(a1-2)Man(a1-3)Man
In short: as §1

[30] = molecular target: Man(a1-2)Man(a1-2)Man(a1-6)[Man(a1-3)]Man
In short: as §1

Man(a1-2)Man(a1-3)Man = molecular target: Man(a1-2)Man(a1-3)Man
In short: as §1

[31] = molecular target: Man(a1-2)Man(a1-3)[Man(a1-2)Man(a1-6)]Man
In short: as §1

[32] = molecular target: Man(a1-2)Man(a1-3)[Man(a1-2)Man(a1-6)]Man(a1-6)[Man(a1-2)Man(a1-2)Man(a1-3)]Man
In short: as §1

B1: Gal 2 (Canis lupus) (protein)
chain: MSGKFEVMNMDMKLGGTLKIKGKIAGDADGFVINLGQGSDKLNLHFNPRFHESVIVCNSRNWGQEQRDKHMCFSPGSEVKFTVTFENDGFKVKLPDGHQLTFPNRLGHSHLSYLGVQGGLKVSSFKIE
glycan array binding signal (z-score) [1]: 0.112
glycan array binding signal (z-score) [2]: -0.169
glycan array binding signal (z-score) [3]: -0.339
glycan array binding signal (z-score) [4]: 1.2
glycan array binding signal (z-score) [5]: 0.101
glycan array binding signal (z-score) [6]: -0.002
glycan array binding signal (z-score) [7]: -0.253
glycan array binding signal (z-score) [8]: 0.141
glycan array binding signal (z-score) [9]: -0.36
glycan array binding signal (z-score) [10]: 0.058
glycan array binding signal (z-score) [11]: -0.291
glycan array binding signal (z-score) [12]: -0.369
glycan array binding signal (z-score) [13]: -0.097
glycan array binding signal (z-score) [14]: -0.227
glycan array binding signal (z-score) (GlcNAc(b1-3)Gal): -0.033
glycan array binding signal (z-score) [15]: 0.046
glycan array binding signal (z-score) (GlcNAc(b1-3)Gal(b1-4)Glc): 0.133
glycan array binding signal (z-score) [16]: 0.04
glycan array binding signal (z-score) [17]: -0.183
glycan array binding signal (z-score) (GlcNAc(b1-3)GalNAc): -0.18
glycan array binding signal (z-score) (GlcNAc(b1-3)Man): -0.104
glycan array binding signal (z-score) [18]: -0.393
glycan array binding signal (z-score) [19]: 0.027
glycan array binding signal (z-score) [20]: -0.1
glycan array binding signal (z-score) [21]: -0.288
glycan array binding signal (z-score) (GlcNAc(b1-4)GlcNAc): 0.206
glycan array binding signal (z-score) [22]: -0.331
glycan array binding signal (z-score) [23]: -0.405
glycan array binding signal (z-score) [24]: -0.021
glycan array binding signal (z-score) [25]: -0.114
glycan array binding signal (z-score) [26]: -0.268
glycan array binding signal (z-score) (GlcNAc(b1-6)GalNAc): 0.074
glycan array binding signal (z-score) (GlcNAc3Prop(b1-4)GlcNAc): -0.333
glycan array binding signal (z-score) [27]: 0.288
glycan array binding signal (z-score) (Kdn(a2-3)Gal(b1-3)GalNAc): 0.163
glycan array binding signal (z-score) (Kdn(a2-3)Gal(b1-3)GlcNAc): -0.388
glycan array binding signal (z-score) (Kdn(a2-3)Gal(b1-4)Glc): 0.09
glycan array binding signal (z-score) (Kdn(a2-3)Gal(b1-4)GlcNAc): -0.203
glycan array binding signal (z-score) [28]: -0.172
glycan array binding signal (z-score) (Kdn(a2-6)Gal(b1-4)GlcNAc): -0.013
glycan array binding signal (z-score) [29]: -0.019
glycan array binding signal (z-score) [30]: -0.081
glycan array binding signal (z-score) (Man(a1-2)Man(a1-3)Man): -0.115
glycan array binding signal (z-score) [31]: -0.162
glycan array binding signal (z-score) [32]: 0.426
